# “And” between values parts separate entries of the source, which are not always exact repeats. Equal entries are not always repeated. Hit rate of the full screen: of about 420,000 compounds, about 50,000 (12%) were called active. This list was built around the results that the source calls inconclusive (neither active nor inactive); the mix of calls is not that of the screen. Calls follow the shape of the dose curve; as a rule, active = well fitted inhibition curve with a large enough effect; inconclusive = small, poorly fitted or top-dose-only effect; inactive = flat fitted curve, though single readings scatter. Potencies beside an inconclusive call are fits to weak or partial responses and may not hold up.
# Assay: qHTS for Inhibitors of human tyrosyl-DNA phosphodiesterase 1 (TDP1): qHTS in cells in presence of CPT; also: nearly all actives have a fitted effect of over 55% in size
# Settings: chicken DT40 Tdp1-/-;hTDP1 cells + 20 nM CPT, ATP luminescence, 48 h; activity change, negative = growth inhibition: at 46.2 µM (top of the series)
# Outline: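 Chicken DT40 Tdp1-/- cells complemented with human TDP1, 400 cells/well, exposed to compounds plus 20 nM camptothecin for at least 48 h at 37 C; viability read as ATP content by CellTiter-Glo luminescence.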
# % is scaled to controls: 0 for no effect and ±100 for the full control effect; potency is read from the fitted curve at half-maximal effect; tags tell the direction and shape of the fitted curve.
SMILES,Potency,"activity change, negative = growth inhibition"
COc1ccc(Nc2nc(-c3cccs3)nc3ccccc23)cc1,"inconclusive: 20.6 µM [inhibitor, single point]",
CC1CCN(C(=O)CSc2nnc(NC(=O)Nc3ccccc3)s2)CC1,"inconclusive: 16.4 µM [inhibitor, single point]",
COc1cccc(N=c2oc3ccc(OC)cc3cc2-c2nc3ccccc3[nH]2)c1,"inconclusive: 11.6 µM [inhibitor, partial curve, poor fit]",
COc1cc(C(=O)OC2CSCC2NC(=O)c2ccccc2)cc(OC)c1OC (stereo not given),"inconclusive: 29.1 µM [inhibitor, single point]",
c1ccc(Cn2nnnc2C(c2ccccn2)N2CCN(c3ccccc3)CC2)cc1 (stereo not given),"inconclusive: 18.4 µM [inhibitor, single point]",
Cc1onc(-c2ccccc2Cl)c1C(=O)OCC(=O)N1CCN(c2ccccc2)CC1,"inconclusive: 20.6 µM [inhibitor, single point]",
Cc1cccc(CC(=O)Nc2c(C(=O)Nc3cccc(F)c3)oc3ccccc23)c1,"inconclusive: 25.9 µM [inhibitor, single point]",
COC(=O)c1ccccc1NC(=O)Cn1c(CCC(=O)O)ccc1-c1ccc(C)cc1,,inactive: -28.4%
O=C(C[n+]1ccccc1Cl)c1cccc([N+](=O)[O-])c1,"inconclusive: 35.5 µM [inhibitor, single point]",
Nc1nc2n(n1)C(c1ccc(F)cc1)CC(c1ccc(F)cc1)N2 (stereo not given),,inactive: -30.8%
CCOC(=O)NC1(NCC(C)C)Oc2ccccc2O1,"inconclusive: 29.1 µM [inhibitor, single point]",
Cc1ccc2c(c1)N(C(=O)CCC(=O)NCc1cccs1)CC(C)O2 (stereo not given),"inconclusive: 29.1 µM [inhibitor, partial curve, poor fit]",
Cc1ccccc1CC1(CO)CCCN(Cc2nc(-c3cccs3)oc2C)C1 (stereo not given),"inconclusive: 29.1 µM [inhibitor, single point]",
CS(=O)(=O)c1ncc(Cl)c(C(=O)Nc2c(C(=O)c3ccc(Cl)cc3)oc3ccccc23)n1,"inconclusive: 0.58 µM [inhibitor, single point]",
COc1cccc(-c2nc3c(C#N)c[nH]n3c2NC2CCC(C)CC2)c1 (stereo not given),"inconclusive: 29.1 µM [inhibitor, single point]",
O=C(O)c1ccc(CSc2nc(-c3ccc(Cl)cc3)cc(C(F)(F)F)n2)cc1,"inconclusive: 5.8 µM [inhibitor, full curve, poor fit]",
CCN(CC)CC(=O)Nc1nc(-c2ccc(Cl)cc2)cs1,"inconclusive: 20.6 µM [inhibitor, single point]",
CC1CCCC(C)N1CCCNC(=O)c1cc2c(s1)-c1ccccc1OC2 (stereo not given),"inconclusive: 29.1 µM [inhibitor, single point]",
CCc1ccc(N/C(SCc2ccccc2C)=C(/C#N)C(=O)NCc2ccco2)cc1,"inconclusive: 29.1 µM [inhibitor, single point]",
CCCNC(=O)c1cc(C2CCCN(S(=O)(=O)c3ccccc3)C2)on1 (stereo not given),"inconclusive: 18.4 µM [inhibitor, partial curve]",
CC1=C(C(=O)Nc2cccnc2)C(c2ccccc2Cl)n2nc(-c3ccccc3)nc2N1 (stereo not given),"inconclusive: 25.9 µM [inhibitor, single point]",
O=C(Cc1ccccc1)NNS(=O)(=O)c1ccc(F)cc1,,inactive: -9.25%
COc1ccc(/C=C2\SC(=S)N(CC(=O)Nc3nnc(C)s3)C2=O)cc1,,inactive: -0.895%
CCCOc1ccc(C(=O)NC(=S)NCc2cccnc2)cc1,"inconclusive: 20.6 µM [inhibitor, single point]",

SMILES,Potency,"activity change, negative = growth inhibition"
COCCNC(=O)/C(C#N)=C/c1ccc(-c2ccc(S(=O)(=O)N3CCOCC3)cc2)o1,"inconclusive: 2.06 µM [inhibitor, full curve, poor fit]",
Clc1cccc(-n2ncc3c(NCCCN4CCOCC4)ncnc32)c1,"inconclusive: 23.1 µM [inhibitor, single point]",
CCCOC(=O)c1ccc(NC(=O)c2ccccc2[N+](=O)[O-])cc1,"inconclusive: 18.4 µM [inhibitor, partial curve]",
Cc1cc(C)c2nc(N(CCN(C)C)C(=O)/C=C/c3cccs3)sc2c1,"inconclusive: 6.51 µM [inhibitor, single point]",
COc1ccc(NC(=O)CSc2nnc3ccc(-c4ccncc4)nn23)cc1,,inactive: -18.8%
COc1cc(NC(=O)C2CC3CCC2C3)c(OC)cc1Cl (stereo not given),"inconclusive: 29.1 µM [inhibitor, single point]",
c1ccc(-c2cnc(-c3cccnc3)o2)cc1,"inconclusive: 29.1 µM [inhibitor, single point]",
O=C(NCCc1c[nH]c2ccccc12)C1CCN(Cc2ccc(Br)cc2)CC1,"inconclusive: 29.1 µM [inhibitor, single point]",
COc1cc(-c2noc(C3CCCN(S(=O)(=O)c4cccc(Cl)c4)C3)n2)cc(OC)c1OC (stereo not given),active: 12.6 µM,
COc1ccc2c(c1)NC(=O)C2CC(=O)N1CCOc2c(cc(-c3cnc4ccccc4c3)cc2OC)C1 (stereo not given),"inconclusive: 29.1 µM [inhibitor, single point]",
CCCCOC(=O)C1=C(C)Nc2ncnn2C1c1cc(OC)c(OC)cc1OC (stereo not given),,inactive: 0.272%
N#Cc1ccc(NC(=O)COC(=O)c2cccc(S(=O)(=O)N3CCCC3)c2)cc1,,inactive: -10.4%
Nc1ccc(C(=O)O)cc1[N+](=O)[O-],,inactive: 4.07%
CN1CCN(C(=S)Nc2ccc(S(N)(=O)=O)cc2)CC1,,inactive: -2.07%
CCOC(=O)C1CCCN(CCC(C)c2ccccc2)C1 (stereo not given),,inactive: -3.8%
CC1CC(C)CN(C(=O)COC(=O)c2nccnc2N)C1 (stereo not given),,inactive: -25.6%
CC(=O)c1c(C)n(-c2ccc(C)cc2)c2ccc(OC(=O)COc3ccccc3)cc12,active: 6.51 µM,
CCc1ccccc1N(C(=O)CCC(=O)Nc1cc(C)on1)C(C(=O)NC1CCCC1)c1ccco1 (stereo not given),"inconclusive: 29.1 µM [inhibitor, single point]",
CN(C)CCN[C@H]1CCC2C3CC=C4C[C@@H](O)CC[C@]4(C)C3CC[C@@]21C (stereo not given in full),active: 5.8 µM,
O=C(c1cc(-c2ccncc2)nc2ccccc12)N1CCN(c2ccccc2O)CC1,"inconclusive: 25.9 µM [inhibitor, single point]",
O=C(CNc1ccccc1Cl)Nc1cc(S(=O)(=O)N2CCOCC2)ccc1Cl,,inactive: -15.7%
COc1ccc(N2CCN(S(=O)(=O)c3ccc4c(c3)NC(=O)C(C)S4)CC2)cc1 (stereo not given),"inconclusive: 18.4 µM [inhibitor, single point]",
O=C(Nc1ccc2oc(-c3ccc4ccccc4c3)nc2c1)c1cc(Cl)ccc1Cl,"inconclusive: 18.4 µM [inhibitor, single point]",
COc1ccc(-c2noc(CN(C(=O)c3c(-c4ccccc4Cl)noc3C)C(C)C)n2)cc1,active: 16.4 µM,

SMILES,Potency,"activity change, negative = growth inhibition"
CCc1cc(C(=O)N(CC)CC(=O)Nc2c(F)cccc2F)sc1C,"inconclusive: 20.6 µM [inhibitor, single point]",
Cc1ccc2nc(CN3CCN(S(=O)(=O)c4ccc(C)c(C)c4)CC3)oc2c1,,inactive: -22.4%
Cc1ccc2nc(-c3ccncc3)cc(C(=O)NCCc3ccc(F)cc3)c2c1,"inconclusive: 10.3 µM [inhibitor, partial curve]",
COc1ccc(C(=O)NCCOc2cccc(Oc3ccccc3)c2)cc1OC,"inconclusive: 25.9 µM [inhibitor, single point]",
CC(C)C(=O)Nc1nnc(SCc2cc(=O)n3ccccc3n2)s1,"inconclusive: 4.11 µM [inhibitor, full curve, poor fit]",
COc1ccc(Cc2nnc(NC(=O)c3ccccc3[N+](=O)[O-])s2)cc1,,inactive: -22.9%
CCOC(=O)c1ccc(N2C(=O)CC(Sc3ncccn3)C2=O)cc1 (stereo not given),"inconclusive: 25.9 µM [inhibitor, single point]",
C/C(=N\NC(=O)c1nnn(-c2nonc2N)c1CSc1ccc(C)cc1)c1cccs1,,inactive: -17.6%
COC(=O)c1cc(NC(=O)CC2NC3CCCCC3NC2=O)cc(C(=O)OC)c1 (stereo not given),,inactive: -5.96%
N#Cc1ccc(OCCOCCNC2CCCC2)cc1,,inactive: 19.9%
O=C(c1cc(C(=O)N2CCCC2)cc([N+](=O)[O-])c1)N1CCCC1,,inactive: 2.64%
Cc1c(NS(C)(=O)=O)c(=O)n(-c2ccccc2)n1C,,inactive: -8.47%
COc1ccc(C=NNC(=O)CCCC(=O)NN=Cc2ccc(OC)c(OC)c2)cc1OC,,inconclusive: -31.6% [inhibitor]
CN1CCN(Cc2ccc(-c3ccc(Cl)cc3)o2)CC1,"inconclusive: 29.1 µM [inhibitor, single point]",
CCOC(=O)N1CCN(C(=O)CSCC(=O)Nc2nc(-c3ccc(Cl)s3)cs2)CC1,active: 14.6 µM,
COc1ccc(-n2nnnc2SCC(=O)NCCc2ccc(OC)c(OC)c2)cc1,"inconclusive: 29.1 µM [inhibitor, single point]",
Cc1nnsc1C(=O)NC1CCCc2c1cnn2-c1ccc(C(C)(C)C)cc1 (stereo not given),active: 10.3 µM,
COc1cccc(CNC(=O)c2cc(C)nc3ccccc23)c1,,inactive: -0.194%
CCCn1c(SCC(=O)NC2CCCC2)nnc1C(C)C,,inactive: 0.848%
Cc1ccc(NC(=O)CN(c2ccc(C)cc2)S(=O)(=O)c2cccc3nonc23)cc1,"inconclusive: 29.1 µM [inhibitor, single point] and inconclusive: 18.4 µM [inhibitor, single point]",
Cc1ccccc1/C=N/NC(=O)c1ccc(-n2cnnn2)cc1,,inactive: 0.142%
CN(C(=O)c1ccc(Oc2ccc([N+](=O)[O-])cc2)cc1)C1CCCCC1,"inconclusive: 20.6 µM [inhibitor, single point]",

# — PubChem BioAssay AID686979 (National Center for Advancing Translational Sciences (NCATS), 2013)
